Experimental data: the RNAGym collection of RNA variant scans (doi:10.1093/nar/gkz1192)
The source gives no read counts; variants with many changes may rest on few reads.

B1: CPEB3 Ribozyme (parent)
chain: UAACAGGGGGCCACAGCAGAAGCGUUCACGUCGCAGCCCCUGUCAGAUUCUGGUGAAUCUGCGAAUUCUGCUGUAUAUCUC

Variants of: B1
Assay: self-cleavage, relative activity (ratio to wild type); higher = more cleavage; in vitro, sequencing
In short: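 Barcoded CPEB3 ribozyme mutants, produced by rounds of error-prone PCR, self-cleaved while being transcribed with T7 RNA polymerase for 5 hours at 37°C and during a subsequent 15 min DNase I step before EDTA was added. Sequencing of template-switched cDNA on Illumina gave cleaved and total reads, and DNA sequencing assigned barcodes to variants. Each variant's relative activity is its cleaved/total read fraction divided by the unmutated ribozyme's fraction, averaged across three batches. A variant needed a minimum of 5 reads.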

Variant	self-cleavage
UAACAGGGGGCCACUGCUGAAGCGUUCACGUCGCAGCCCCUGUCAGAUUCUGGGGAAUCUGCGAAUUCUGCUGUAAAUCUC [A15U A18U U54G U76A]	0.05
UAACAGGGGGCCACUGCAGGAGCGUUCGCGUCGCAGCCCCUGUCAGAUUCUGGCGAAUCUGCGAAUUCUGCAGUAUAUCUC [A15U A20G A28G U54C U72A]	0.14
UAACAGGGGGCCACUGCAGGAGCGUUCACGUCGCAGCCCCCGUCAGAUCCUGGUGAAUCUGCGAAUUCUGCAGUAUAUCUC [A15U A20G U41C U49C U72A]	0.11
UAACAGGGGGCCACUGCAGUAGCGUUCACGUCGCGGCCCCUGUCAGAUUCUGGUGAAUCUGCGAAUUCUGCUAUAUAUCUC [A15U A20U A35G G73A]	1.13
UAACAGGGGGCCACUGCUGAAGCGUUCACGACGCAGCCCCUGUCAGAUUCUGGUGAAUCUGCGAAUUCUGCUGUAUAUCUC [A15U A18U U31A]	0.14
UAACAGGGGGCCACUGCGGAAGCGUUCACGCCGCAGCCCCUGCCUGAUUCUGGUGAAUCUGCGAAUUCUGCUGUAUAUCUC [A15U A18G U31C U43C A45U]	0.2
UAACAGGGGGCCACUGCGGAAGCGCUCACGUCGCAGCCCCUGUCGGAUUCUGGAGAAUCUGCGAAUUCUGCUGUAUAUCUC [A15U A18G U25C A45G U54A]	0.42
UAACAGGGGGCCACUGCAGGAGCGUACACGUCGCAGCCCCUGUCAGAUUCUGGUGAAUCCGCGAAUUCCGCUGUAUAUCUC [A15U A20G U26A U60C U69C]	0.08
UAACAGGGGGCCACUGCAGGAGCGUUCACGUCGCAGCCCCUGUCAGAUUCCGGUGAAUCUGCGAAUUCUGCAGCAUAUCUC [A15U A20G U51C U72A U74C]	0.99
UAACAGGGGGCCACUGCGGAAGCGUUCACGUCGCAGCCCCUGUCAGAUUCUGGUGAGUCAGCGAAUUCUGCUGUAUACCUC [A15U A18G A57G U60A U78C]	0.17
UAACAGGGGGCCACUGCGGAAGCGUCCACGUCGCAGCCCCUGUCAGAUUCUGGCGAAUCUGCGUAUUCCGCUGUAUAUCUC [A15U A18G U26C U54C A64U U69C]	0.71
UAACAGGGGGCCACUGCAGGAGCGUUCACGUCGCGGCCCCUGUCAGAUUCUGGUGAAUCUGCGAAUUCUGCUGUAUAUCUC [A15U A20G A35G]	0.92
UAACAGGGGGCCACUGCUGAAGCGUUCACGUCGCAGCCUCUGUCAGAUUCGGGUGAACCUGCGAAUUCUGCUGUAUAUCUC [A15U A18U C39U U51G U58C]	0.17
UAACAGGGGGCCACUGCUGAAGCGUUCACGACGCGGCCCCUGUCAGAUUCUGGUGAAUCUGCGAAUUCUGCUGUAUACCUC [A15U A18U U31A A35G U78C]	0.28
UAACAGGGGGCCACUGCGGAAGCGUUCACGUCGCAGCCCCUGUCAGUUUCUGGUGAAUCUGCGAAUUCUGCUGUAUAUCUC [A15U A18G A47U]	0.1
UAACAGGGGGCCACUGCGGAAGCGUCCACGCCGCUGCCCCUGUCAGAUUCUGCUGAAUCUGCGAAUUCUGCUGUAUAUCUC [A15U A18G U26C U31C A35U G53C]	0.06
UAACAGGGGGCCACUGCAGGAGCGUUCACGCCGCAGCCCCUGUCAGAUUCUGGUGAAUAUGCGAAUUCAGCUGUAUAUCUC [A15U A20G U31C C59A U69A]	0.07

Variant	self-cleavage
UAACAGGGGGCCACUGCUGAAGCGUACACGCCGCUACCCCUGUCAUAUUCUGGUGAAUCUGCGAAUUCUGCUGUAUAUCUC [A15U A18U U26A U31C A35U G36A G46U]	0.12
UAACAGGGGGCCACUGCUGAAGAGUUCACGUCGCAGCCCCUGUCAGAUUCUGGUGAGUCUGCGAAUUCUGCUGUAUAUCUC [A15U A18U C23A A57G]	0.18
UAACAGGGGGCCACUGCAGGAGCGUUCACGUCGCGACCCCUGCCAGAUUCUGGUGAAUCUGCGAAUUCUGCUGUAUAUCUC [A15U A20G A35G G36A U43C]	0.15
UAACAGGGGGCCACUGCUGAAGCGUUCAUGUCGCAGCCCCUGUCAGAUUCUAGUGAAUCUGCGAAUUCUGCUGUAUAUCUC [A15U A18U C29U G52A]	0.41
UAACAGGGGGCCACUGCGGAAGCGUUCACGUCGCAGCCCCUGUCGGAUCCUGGUGAAUAUGCGGAUUCUGCUGUAUAUCUC [A15U A18G A45G U49C C59A A64G]	0.1
UAACAGGGGGCCACUGCAGGAGCGUUCUCGUCGCAGCCCCUGUCAGAUUCUGGUGAAUCUGCGAAUUCUGUUGUAUAUCUC [A15U A20G A28U C71U]	0.16
UAACAGGGGGCCACUGCGGAAGCGUUCACGUCGUGGCCCCUGUCAGAUUCUGGUGAAUCUGAGAAUUCUGCUGUAUAUCUC [A15U A18G C34U A35G C62A]	0.05
UAACAGGGGGCCACUGCUGAAGCGUCCACGUCGCAGCCCCUGUCCGAUUCUGGUGAAUCUGCGAAUUCUGCUGUAUAUCUC [A15U A18U U26C A45C]	0.36
UAACAGGGGGCCACUGCAGGAGCGUUCCCGUCACAGCCCCUGUCAGACUCUUGUGAAACUGCGAAUUCUGCUGUAUAUCUC [A15U A20G A28C G33A U48C G52U U58A]	0.07
UAACAGGGGGCCACUGCAGGAGCGUGCACGUCGCAGCCCCAGUCAGAUCCUGGUGAGUCUGCGAAUUCUGCUGUAUAUCUC [A15U A20G U26G U41A U49C A57G]	0.04
UAACAGGGGGCCACUGCAGUAGCGUUCACGUCGCAGCCCCUGUCAGAUUCUGGUGAAUCUGCGGAUUCUGCUGUAUUUCUC [A15U A20U A64G A77U]	0.08
UAACAGGGGGCCACUGCGGAAGCGUUCACGCUGCAGCCCCUGUCAGAUUCCGGUGAAUCUGCGAAUCCUGCUGAAUAUCUC [A15U A18G U31C C32U U51C U67C U74A]	0.06
UAACAGGGGGCCACUGCAGGAGCGUUCACGUCGCAGCCCCUGUCAGAUUCUGGUGAAUCUGCGAAUUCUGCUGUAUUCCUC [A15U A20G A77U U78C]	0.51
UAACAGGGGGCCACUGCAGGAGCGUUCGCGUCGCAGCCCCAGUCAGAUUCUGGUGAAUCUGCGAAUUCUGCUGUAUAUCUC [A15U A20G A28G U41A]	0.18
UAACAGGGGGCCACUGCGGAAGCGUUCACGUCGCAGCCCCUGUCAGAUUCUGGUGAAUCUGCGAGUUCUGUUGUAUAUCAC [A15U A18G A65G C71U U80A]	0.13
UAACAGGGGGCCACUGCAGCAGCGUUCACGUCGCAGCCCCUGUUAGAUUCUGGUGAAUCUGCGAAUUCUGCUGUACAUCUC [A15U A20C C44U U76C]	0.24
UAACAGGGGGCCACUGCAGGAGCGUUCACGUCGCGGCCCCUGUCAGAUUCUGGUGAAUCUGCGAAUUCCGCUGUAUAUCUC [A15U A20G A35G U69C]	0.94
